According to the supplement of paper PMC12217912:
The other results are listed elsewhere or left out. The full chains were built here from the parent and the listed change. Values near 0.05 are background.

B1: TEV protease; numbered along this chain (parent)
chain: MGESLFKGPRDYNPISSSICHLTNESDGHTTSLYGIGFGPFIITNKHLFRRNNGTLVVQSLHGVFKVKDTTTLQQHLVDGRDMIIIRMPKDFPPFPQKLKFREPQREERICLVTTNFQTKSMSSMVSDTSCTFPSGDGIFWKHWIQTKDGQCGSPLVSTRDGFIVGIHSASNFTNTNNYFTSVPKNFMELLTNQEAQQWVSGWRLNADSVLWGGHKVFMVKPEEPFQPVKEATQL

Variants of: B1
Assay: raw area under fraction-flipped curve 0-4 h after induction (AUC4h, not background-subtracted), DNA-recorder readout of cleavage of the substrate (dimensionless); higher = more cleavage of the substrate by the protease variant
Settings: temperature: 34 °C; time window: 0-4 h after rhamnose induction
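Note: Bxb1 expression induced with 0.2% (w/v) L-rhamnose at OD600 near 0.5, cultures sampled hourly, flipped fraction per protease–substrate barcode pair counted by paired-end Illumina sequencing.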

Variant | area with substrate CNLYFQS | area with substrate NNLYFQS | area with substrate PNLYFQS | area with substrate QNLYFQS | area with substrate TNLYFQS | area with substrate VNLYFQS | area with substrate YNLYFQS | area with substrate HNLYFQS | area with substrate KNLYFQS | area with substrate LNLYFQS | area with substrate MNLYFQS | area with substrate RNLYFQS | area with substrate WNLYFQS | area with substrate FNLYFQS | area with substrate GNLYFQS | area with substrate SNLYFQS | area with substrate INLYFQS
F218W | 0.0539 | 0.0496 | 0.0706 | 0.0659 | 0.064 | 0.0788 | 0.0529 |  |  |  |  |  |  |  |  |  | 
M219N | 0.0629 |  |  |  | 0.0737 |  |  | 0.0529 | 0.0653 | 0.0586 | 0.0717 | 0.0551 | 0.0521 |  |  |  | 
K221G | 0.062 | 0.0696 |  |  | 0.05 |  | 0.0658 | 0.0464 | 0.0561 | 0.0654 | 0.0655 |  | 0.0575 | 0.0616 | 0.0769 | 0.0608 | 
K221W | 0.0577 | 0.0632 |  |  |  |  |  |  | 0.0865 | 0.0614 |  | 0.0564 |  | 0.0573 |  |  | 0.0511
P222K | 0.0624 | 0.0607 |  | 0.0874 | 0.056 | 0.071 | 0.0594 | 0.0554 | 0.0602 |  |  |  | 0.0525 |  |  | 0.0705 | 0.0796
E223S | 0.0718 | 0.0834 | 0.0768 | 0.0714 | 0.0604 | 0.062 | 0.0676 | 0.0657 | 0.0597 |  | 0.0663 |  | 0.0664 |  | 0.0638 |  | 0.0631
E223V | 0.0629 | 0.059 |  |  | 0.064 |  |  | 0.061 |  |  |  |  |  | 0.0689 |  |  | 0.0715
E223W | 0.062 |  |  |  | 0.0755 |  | 0.0867 | 0.0446 | 0.0612 |  | 0.0713 |  | 0.064 | 0.0667 | 0.0413 |  | 0.0616
E224G | 0.0603 | 0.0692 | 0.072 |  | 0.0653 |  |  | 0.0728 | 0.0787 | 0.0458 |  |  | 0.0457 |  |  | 0.0753 | 
P225E | 0.061 | 0.0596 |  |  | 0.0648 |  | 0.0728 |  | 0.0668 | 0.0625 | 0.0572 |  |  | 0.0622 | 0.0532 | 0.0627 | 0.0702
P225G | 0.0777 | 0.082 |  | 0.0591 |  |  |  | 0.0604 |  | 0.0682 |  |  | 0.0587 | 0.0563 |  | 0.0746 | 0.0604
P225H | 0.0725 |  |  |  |  | 0.0662 | 0.06 | 0.0555 |  | 0.0756 | 0.0551 |  | 0.0607 | 0.0525 |  | 0.0841 | 0.066
P225M | 0.0662 |  | 0.065 |  | 0.0705 | 0.08 |  | 0.0614 | 0.0657 | 0.0693 |  |  | 0.0556 | 0.0517 | 0.0687 | 0.0259 | 
P225N | 0.0811 |  | 0.0662 |  | 0.0452 | 0.0666 | 0.0472 |  | 0.0678 | 0.0614 |  |  | 0.0574 | 0.0554 | 0.0626 | 0.0675 | 0.066
P225Q | 0.0722 |  | 0.0892 |  | 0.0853 |  | 0.0547 | 0.06 | 0.0639 | 0.0708 |  |  | 0.0571 |  |  |  | 
F226R | 0.0802 |  | 0.0791 |  | 0.084 | 0.0552 |  |  | 0.0657 | 0.0603 | 0.0427 |  |  |  | 0.0656 |  | 0.066
F226T | 0.0422 |  |  |  |  |  |  | 0.0545 | 0.0714 |  |  |  | 0.0546 |  |  |  | 
Q227C | 0.103 | 0.0603 |  |  | 0.0559 | 0.064 |  | 0.0541 | 0.0797 | 0.0621 | 0.0697 |  | 0.0661 | 0.0551 |  |  | 

Variant | area with substrate CNLYFQS | area with substrate NNLYFQS | area with substrate PNLYFQS | area with substrate QNLYFQS | area with substrate TNLYFQS | area with substrate VNLYFQS | area with substrate YNLYFQS | area with substrate HNLYFQS | area with substrate KNLYFQS | area with substrate LNLYFQS | area with substrate MNLYFQS | area with substrate RNLYFQS | area with substrate WNLYFQS | area with substrate FNLYFQS | area with substrate GNLYFQS | area with substrate SNLYFQS | area with substrate INLYFQS
P228G | 0.0731 |  | 0.0694 |  | 0.0476 |  |  | 0.0629 |  |  | 0.0706 |  |  |  | 0.0647 |  | 0.068
P228K | 0.086 | 0.0833 | 0.0725 | 0.086 | 0.06 |  | 0.0639 |  | 0.0769 |  |  |  | 0.0464 |  | 0.0751 |  | 
P228L | 0.0739 |  | 0.0628 |  | 0.0689 | 0.0745 | 0.0703 |  |  |  | 0.0676 |  |  |  |  |  | 0.0914
P228M | 0.105 | 0.0572 |  |  | 0.0607 |  | 0.0607 |  | 0.0627 | 0.0521 |  |  |  | 0.0623 |  |  | 
V229A | 0.0711 | 0.0773 | 0.0442 |  | 0.0601 |  | 0.0452 |  |  | 0.0683 |  |  |  |  |  | 0.0427 | 0.0689
V229S | 0.0675 |  | 0.064 |  |  |  |  | 0.0763 | 0.053 | 0.0569 | 0.0688 |  | 0.0689 |  | 0.0591 | 0.0549 | 0.0726
V229T | 0.0841 | 0.0801 |  |  |  |  | 0.0679 |  |  | 0.0592 |  |  |  |  | 0.0546 |  | 
K230H | 0.0787 |  |  |  | 0.0591 | 0.0802 |  | 0.0727 | 0.0574 | 0.0909 | 0.0679 |  | 0.0657 | 0.0676 | 0.0583 | 0.0937 | 0.0707
K230Q | 0.0595 | 0.0388 | 0.0713 |  | 0.0865 |  |  | 0.0571 |  | 0.0636 | 0.0593 |  | 0.0537 |  |  | 0.0662 | 0.0619
K230Y | 0.0754 | 0.0381 |  |  |  | 0.0743 | 0.0695 |  | 0.0688 | 0.0841 |  |  | 0.0169 | 0.0598 |  |  | 0.0678
E231F | 0.0656 |  |  |  |  |  |  | 0.0532 |  |  | 0.0608 | 0.0519 | 0.0647 | 0.0635 |  |  | 
T233L | 0.0672 | 0.05 | 0.0679 |  | 0.0599 |  | 0.0567 | 0.0326 |  | 0.0718 | 0.0681 |  | 0.0619 |  | 0.062 |  | 0.062
Q234A | 0.054 |  | 0.0654 |  |  |  | 0.064 | 0.0687 |  |  |  |  | 0.0643 |  |  |  | 
Q234Y | 0.0609 | 0.0641 | 0.068 | 0.0594 | 0.0209 | 0.0598 | 0.0641 | 0.0658 | 0.083 | 0.0592 | 0.0649 |  | 0.0529 | 0.0561 | 0.0651 |  | 0.0617
L235K | 0.0803 |  | 0.0716 | 0.0701 | 0.0355 | 0.0763 | 0.0595 | 0.07 | 0.0743 |  |  |  | 0.0562 | 0.063 | 0.071 | 0.0717 | 
R160L |  |  |  |  |  |  |  |  |  |  |  |  | 0.0599 |  | 0.0643 |  | 0.0675
C111G |  |  |  |  |  | 0.0543 |  | 0.0861 |  | 0.0644 | 0.0678 |  | 0.0679 |  |  |  | 
G8Y |  |  |  |  |  |  |  |  |  | 0.0895 |  |  |  |  |  |  | 
